# Over roughly 110,000 compounds, “z-score” has its median near -0.1; the highest 2% begin near 2. This is one part of the list. The source made the active and inactive calls.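 Rule for the calls: active = z-score in the third read window above 3 or below -3; inactive = the rest.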
# Target: Metabotropic glutamate receptor 8 (Rattus norvegicus) (UniProt P70579)
# Test: mGluR8 Gi/Go-coupled signaling modulation – cell-based, rat, thallium flux, HTS, primary screen (AID 488969)
# Conditions: HEK293 rat mGluR8, GIRK (G protein-gated inwardly rectifying potassium channel) thallium flux, FluoZin2; at 10 µM; stronger effect = higher value; submaximal glutamate (EC20) added with thallium
# UniProt P70579, sequence (P70579 whole entry, looked up): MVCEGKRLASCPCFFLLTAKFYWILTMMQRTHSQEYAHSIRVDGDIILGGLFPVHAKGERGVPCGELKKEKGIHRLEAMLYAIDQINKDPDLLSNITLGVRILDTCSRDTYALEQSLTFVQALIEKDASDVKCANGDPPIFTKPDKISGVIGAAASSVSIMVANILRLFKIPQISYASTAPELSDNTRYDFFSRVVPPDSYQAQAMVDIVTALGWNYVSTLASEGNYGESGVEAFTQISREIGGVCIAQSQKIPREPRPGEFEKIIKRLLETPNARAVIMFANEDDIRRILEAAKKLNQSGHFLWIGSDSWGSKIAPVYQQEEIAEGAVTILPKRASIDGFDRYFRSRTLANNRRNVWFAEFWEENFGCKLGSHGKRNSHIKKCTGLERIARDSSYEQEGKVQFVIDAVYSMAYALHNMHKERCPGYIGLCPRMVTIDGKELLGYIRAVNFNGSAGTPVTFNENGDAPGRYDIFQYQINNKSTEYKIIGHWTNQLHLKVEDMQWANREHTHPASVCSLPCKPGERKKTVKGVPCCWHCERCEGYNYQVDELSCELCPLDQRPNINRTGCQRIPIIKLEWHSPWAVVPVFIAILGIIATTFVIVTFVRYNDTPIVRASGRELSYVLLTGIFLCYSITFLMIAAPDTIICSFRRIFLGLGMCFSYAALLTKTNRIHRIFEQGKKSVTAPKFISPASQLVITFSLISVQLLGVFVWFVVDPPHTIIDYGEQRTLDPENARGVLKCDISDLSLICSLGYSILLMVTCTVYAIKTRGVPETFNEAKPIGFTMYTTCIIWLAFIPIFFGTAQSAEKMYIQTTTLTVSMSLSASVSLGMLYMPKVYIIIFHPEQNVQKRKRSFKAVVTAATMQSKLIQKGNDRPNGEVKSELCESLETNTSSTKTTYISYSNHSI
row,SMILES,z-score
1,Cc1nn(-c2ccccc2)c2[nH]c(C(F)(F)F)cc(=O)c12,-0.749
2,O=C(COc1ccc2ccccc2c1)NNC(=O)[C@@H]1CCCC[C@@H]1C(=O)O,-0.306
3,CN1CCN(c2ccc(S(=O)(=O)N3CCCCC3)cc2NC(=O)c2ccc(F)cc2F)CC1,-0.252
4,Cc1ccccc1Cn1nc(C)c(NC(=O)c2sc3ccccc3c2Cl)c1C,-0.431
5,CC1(C)CC(=O)C(C=NCCCN2CCOCC2)=C(O)C1,0.63
6,O=C(CN1CCOCC1)NCc1ccccc1,0.831
7,O=C(Nc1ccc(F)cc1)NC1CCCCC1,0.532
8,NC1=NC(=O)/C(=C/c2c(OS(=O)(=O)c3ccc(Cl)cc3)ccc3ccccc23)S1,-0.185
9,CCN(CC)S(=O)(=O)c1ccc(Cl)c(NC(=O)COC(=O)c2c(C)noc2C)c1,-0.312
10,CCn1cc(C(=O)NCCCOC)c(=O)c2cc(S(=O)(=O)N(C)C)ccc21,-0.209
11,Cc1ccc(N2CCN(/N=C/C=C/c3ccccc3)CC2)cc1,-0.48
12,COCCNC(=O)c1ccccc1-c1nc(-c2ccccc2OC)no1,0.0674
13,CCOC(=O)c1[nH]c(C)c(C(=O)NCc2cccnc2)c1C,-0.309
14,CCOC(=O)C1=C(C)NC2=C(C(=O)c3ccccc32)C1c1ccc(O)cc1 (stereo not drawn),-0.0608
15,Cc1ccc(Cn2nnc3c(=O)n(CC(=O)N4CCCc5ccccc54)cnc32)cc1,0.595
16,Cc1cccc(N/C(N)=N/c2nc(C)cc(C)n2)c1,-0.113
17,O=C1C=C(NCC2CCCO2)CC(c2ccccc2)C1 (stereo not drawn),0.797
18,COC(=O)c1cccc(N2C(=O)c3ccccc3S2(=O)=O)c1,-0.0086
19,CCn1c(=O)cc(OCC(=O)Nc2nc(C)cs2)c2ccccc21,-0.697
20,C=CCNC(=O)NC(=S)c1ccccc1,active: 3.72
21,O=C(CSc1nnc(C2CC2)n1-c1ccccc1)Nc1ccc(N2CCOCC2)cc1,-0.231
22,Brc1ccc(NC2=Nc3ccccc3CC2)cc1,-0.031
23,COc1nnc(-c2ccc(N3CCOCC3)c(NC(C)=O)c2)c2ccccc12,-1.64

row,SMILES,z-score
1,C=CCSC1=N/C(=C\c2ccc(C)o2)C(=O)S1,0.449
2,O=C(Cn1c(=O)sc2ccccc21)NCCOc1ccccc1F,-0.567
3,COc1ccccc1-c1nnc2n1N=C(C)CS2,0.851
4,COc1cccc(-n2nnc3c(=O)n(Cc4ccc(Cl)cc4)cnc32)c1,-0.237
5,Cc1ccc2cc(CCNC(=O)c3ccc4c(c3)OCO4)c(=O)[nH]c2c1C,-0.854
6,Cc1ccc(CSCC(=O)N/N=C/c2sccc2C)cc1,1.26
7,CCOc1cc(C(=O)N(C)c2ccccc2)cc(OCC)c1OCC,0.317
8,Cc1ccc2c(CSc3nnc(N)s3)cc(=O)oc2c1,-0.395
9,CCn1c(/C=C2/C(=O)N(C)c3ccccc32)nc2ccccc2c1=O,-0.0307
10,O=S(=O)(N/N=C/c1ccc(OC2CSC2)cc1)c1ccccc1,-0.00217
11,COc1ccc(NC(=O)CC2C(=O)N(c3ccccc3)C(=O)N2CCc2cccs2)cc1 (stereo not drawn),-0.197
12,C=CCn1c(Cc2ccc(OC)cc2)nnc1SCC(=O)c1cccc([N+](=O)[O-])c1,-0.234
13,COC(CNC(=O)c1ccc2c(c1)nc(C)n2-c1cccc(F)c1)OC,-0.149
14,CCCC(CCC)C(=O)Nc1c[nH]c(=O)[nH]c1=O,0.0953
15,Cc1nc2ccccc2n1CCC(=O)O,-0.341
16,COc1nc(N/N=C/c2cc3c(cc2Br)OCO3)nc(N2CCOCC2)n1,-0.297
17,CCOC(=O)c1c(C)[nH]c(C(=O)Nc2ccc3c(c2)OCO3)c1C,-0.531
18,COc1cc(C2C(C(=O)c3ccc(C)o3)=C(O)C(=O)N2CCc2ccccc2)ccc1O (stereo not drawn),-0.133
19,COc1nc(-c2ccccc2)ccc1-c1noc(-c2ccccc2F)n1,0.0977
20,CC(=O)c1cccc(N(CC(=O)N2CCOCC2)S(C)(=O)=O)c1,0.157
21,Cc1ccccc1NC(=S)Nc1ccc(Br)cc1,0.0317
22,COc1ccc(/C=N/NC(=O)CSc2nnc(C)n2-c2ccccc2)c(OC)c1OC,-0.14
23,COc1ccc(OC)c(C2SCCN2S(=O)(=O)c2cccc(C(F)(F)F)c2)c1 (stereo not drawn),-0.785

row,SMILES,z-score
1,COP(=O)(OC)c1nc(-c2ccccc2)oc1NCc1ccccc1,-0.463
2,O=C(O)c1cc2c(s1)-c1ccccc1CC2,-0.417
3,O=C(c1cc2ccccc2oc1=O)N1CCN(Cc2ccc3c(c2)OCO3)CC1,-1.3
4,COCCCNC(=O)COc1ccc(-c2nccc(-c3ccccn3)n2)cc1,0.155
5,Clc1cccc(Cl)c1/C=N\Nc1nccs1,-0.215
6,O=C(NC(=S)Nc1ccc(CN2CCOCC2)cc1)c1ccc([N+](=O)[O-])cc1,0.649
7,O=C(Oc1ccnc2cc(Cl)ccc12)N1CCOCC1,-0.719
8,COc1ccc(/C=C/C(=O)CC(O)(c2ccccc2)C(F)(F)F)cc1 (stereo not drawn),0.457
9,Cc1cccc(CSCCNC(=O)Nc2ccccc2)c1,-0.872
10,CCOC(=O)CSc1cc(CS(=O)(=O)c2ccccc2)nc(-c2ccccc2)n1,-0.223
11,CCN(CC)c1ccc(C2=NNC(=O)CC2C)cc1[N+](=O)[O-] (stereo not drawn),-0.192
12,CCCN(CCC)C1=N/C(=C\c2ccco2)C(=O)N1c1ccccc1,-0.536
13,O=C1CC(c2c(F)cccc2Cl)C2=C(COC2=O)N1 (stereo not drawn),-0.183
14,Cc1ccc(C)c(NC(=O)Cn2nc([N+](=O)[O-])c(Br)c2C)c1,0.0369
15,NS(=O)(=O)c1ccc(NC(=O)COC(=O)C2(c3ccccc3F)CCCC2)cc1,-0.382
16,COc1ccc(C(C)(C)C)cc1S(=O)(=O)N1CCN(C)CC1,0.514
17,O=C(NO)C1CC2C=CC1C2 (stereo not drawn),0.117
18,COc1cc(C2C(N3C(=O)c4ccccc4C3=O)C(=O)N2c2cccc(C)c2)cc(OC)c1OC (stereo not drawn),-0.098
19,COC(=O)c1ccc(COc2ccc(-c3nnn(CC(=O)NC(C)(C)C)n3)cc2)cc1,-0.234
20,Cc1ccc(C)c(C(=O)CN2C3=NCCCN3c3ccccc32)c1,0.0716
21,COc1ccc(-c2nnn(CC#N)n2)cc1OC,0.66
22,COc1ccccc1C(=O)NNC1=C(C(=O)C(F)(F)F)CCC1,0.881
23,COc1ccccc1NC(=O)c1c(C)cc(=O)oc1C,-0.0507

row,SMILES,z-score
1,Cc1ncoc1C(=O)Nc1ccccc1-c1ccccc1,-0.54
2,CC1CN(C(=O)C(c2ccccc2)c2ccccc2)CC(C)O1 (stereo not drawn),-0.159
3,CCOC(=O)N1CCN(CC(=O)Nc2ccc(OC)cc2)CC1,1.09
4,COc1ccc(NC(=O)CN(C)C(=O)c2ccc(C)s2)cc1,-0.0453
5,Cc1cccc(C)c1NC(=O)N1CCN(C2CCCCC2)CC1,0.807
6,Cn1cccc1C1Nc2ccccc2NC2=C1C(=O)CC(C)(C)C2 (stereo not drawn),-0.491
7,CC(CCC(=O)Nc1nncs1)C(=O)O (stereo not drawn),-0.417
8,Nc1nnc(SCC(=O)Nc2sc3c(c2C(=O)c2ccccc2)CCCC3)s1,-0.308
9,Cc1nc2cc(NC(=O)N3c4ccccc4CC3C)ccc2n1C (stereo not drawn),-0.544
10,CC(C)CN(CC(C)C)S(=O)(=O)N1CCC(C(=O)NCCc2ccc(Cl)cc2)CC1,-0.189
11,Oc1ccc(Cl)cc1C=Nc1ccc2c3c(cccc13)CC2,-0.239
12,C[C@@H]1C[C@H](Nc2ccccc2)c2ccccc2N1C(=O)c1cccnc1,0.608
13,CCCN(CCC)Cc1cc2ccccc2c2c1COC2,0.142
14,CCC(NC(=O)NC1=NCCS1)(C(F)(F)F)C(F)(F)F,0.399
15,O=C(Oc1cc(-c2ccccc2)no1)c1ccc(F)cc1,-0.196
16,COc1ccc(N=c2oc3ccc(OC)cc3cc2-c2nc3ccccc3[nH]2)cc1,0.132
17,COc1ccc2nc3oc(C(=O)Nc4ccc(OC)c(OC)c4)cc3cc2c1,active: 4.91
18,CCc1cc2c(=O)nc3n(c2s1)Cc1ccccc1/C3=C(/O)c1ccccc1Cl,0.201
19,c1ccc2c(c1)[nH]c1nc(SCCN3CCOCC3)nnc12,0.00762
20,Cc1cccc(-c2cc(C(=O)NCc3ccccn3)c3ccccc3n2)c1,-0.443
21,O=C(CN1CCSC1=NCc1ccccc1)c1ccc(Cl)c(Cl)c1,0.147
22,COc1cccc(NCc2cc3c(C(C)(C)C)nn(-c4ccccc4)c3[nH]c2=O)c1,0.377
23,NC(=O)CSc1nnc(-c2ccc(S(=O)(=O)N3CCCC3)cc2)o1,-0.271

row,SMILES,z-score
1,O=C1c2ccccc2C(=O)c2cc(NC(=O)C3CC3)ccc21,-0.249
2,Cc1cc(NC(=O)CSc2nc3ccsc3c(=O)n2NC(=O)c2ccccc2)no1,active: 3.32
3,O=C(CCc1ccc(S(=O)(=O)NCCc2ccccc2)cc1)Nc1ccc2c(c1)OCO2,0.0814
4,C=CCn1c(SC)nc2sc3c(c2c1=O)CCc1ccccc1-3,-0.165
5,COc1ccc2[nH]c3ccccc3c2c1,0.126
6,CCN(CC)CCNc1ncnc2c1sc1nc(N3CCOCC3)c3c(c12)CC(C)(C)SC3,-0.0997
7,COC(=O)C1C2C=CC3(CN(Cc4ccco4)C(=O)C13)O2 (stereo not drawn),0.49
8,CN1/C(=C\C(=O)COC(=O)Cn2nnc(-c3ccccc3)n2)C(C)(C)c2ccccc21,0.88
9,CCCCNC(=S)NC(=O)c1ccc(Cl)cc1Cl,active: 3.01
10,CCn1c(SCC(=O)NCc2ccco2)nc2cccnc21,0.177
11,Cc1oc2c(c1C(=O)NCc1ccccc1)CCCC2,-0.83
12,CCOC(=O)C1=NOC(CNC(=O)c2c(-c3ccccc3Cl)noc2C)C1 (stereo not drawn),-0.184
13,COc1ccc(COc2ccccc2C(=O)Nc2ccccn2)cc1[N+](=O)[O-],-0.201
14,O=C1OCCC1Sc1nnc(-c2ccccc2Cl)n1Cc1ccccc1 (stereo not drawn),-0.11
15,Nn1c(=O)c2ccccc2n2c(SCc3ccccc3)nnc12,-0.797
16,CCOc1ccc(NC(=O)C2CC(=O)N(CC)C(=Nc3ccc4c(c3)OCO4)S2)cc1 (stereo not drawn),0.117
17,Cc1ccc(C(=O)N/C(=C/c2ccco2)C(=O)NCCc2c[nH]c3ccccc23)cc1,-0.603
18,Cc1ccc(C(=O)CSc2nsc(C)c2C#N)cc1,1.07
19,CCc1cccc(C)c1NC(=S)N1CCCC1C(=O)O (stereo not drawn),-0.125
20,Cc1cc(Oc2ccccc2)nc(OCC#N)n1,0.0739
21,O=C1NCCCN1Cc1ccc(F)cc1,0.043
